# From the supplement of paper PMC11417369
# ± gives the standard deviation of the averaged measurements. This is one part of the list.
# System: PfAP2-EXP AP2 domain (GST-tagged)
# Assay: gcPBM binding intensity (ln(normalized median fluorescence intensity)); higher = stronger DNA binding
# Procedure, shortened: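 An Agilent 4 × 180k array of primer-extended double-stranded 36-bp intergenic genomic probes, with negative controls, was incubated for 1 h with GST-tagged P. falciparum DNA-binding domains expressed in E. coli. Alexa488 anti-GST antibody detected bound protein, scanned at 488 nm. Binding intensity is the highest Masliner-normalised natural-log median intensity across replicate spots of either probe orientation.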
row,Sequence,gcPBM binding intensity (ln)
1,TATGTATTTAAGTTACCTGAACGTTCAGGTAAAATT [CACACA_negctrl_site1393],8.55 ± 0.49
2,ATAAATATTTACAAAAGTACACATAACTTTAGATAT [XGTACX_site1685],8.45 ± 0.54
3,TAAACATAATATTTAACACACATGAAGATGTATATT [CACACA_site1036],8.21 ± 0.4
4,ACAATCCACAGGGGCGCACACATATAAGCAGTATAT [CACACA_site3817],8.83 ± 0.67
5,GTTTTGGCTAACTATTCACACATTAAAATATTACCA [CACACA_site5016],8.6 ± 0.28
6,CACCATGATACATACACACAGACATATACGCATTCA [CACACA_site1008],8.61 ± 0.39
7,TTTGTTGTTTGGAGATGTACATATTTTACACTTTTT [XGTACX_site5965],8.77 ± 0.33
8,AAAAAATTAATAAAAACACACAAAAAAAATAAACAA [CACACA_site1907],8.62 ± 0.48
9,ATTTCACAGAGACACACACACAATATATTTCCTTTT [CACACA_site7773],8.82 ± 0.5
10,ATAAAATATATGAAGACACACATAACATCATATTTT [CACACA_site3144],8.38 ± 0.67
11,TTTATATTAAAATATTGTACGGACATTATTTTGTAA [XGTACX_site8128],8.22 ± 0.35
12,AACCGGGCCTAAGATGTAATGCCTTAGCCTATAAAA [CACACA_negctrl_site479],8.19 ± 0.49
13,CATAATATGACATACACACACAAAAAAAAAAAAATA [CACACA_site1285],8.46 ± 0.62
14,ACTTTAACCTGAACGGTGCATAAAATTTTGGCATTA,8.94 ± 0.2
15,CACGAACACAAACACAAACACACATCATATATATAT [CACACA_site1322],9.72 ± 0.13
16,AAAGATAAAAAAAGTACACACACACCGATATATATA [CACACA_site9006],9 ± 0.44
17,AATATATATAAAAAGGGAAAAATATATAAATAGATA [XGTACX_negctrl_site52],8.57 ± 0.51
18,AAAAAATTGACTAATGCACACAATTACAGATATATA [CACACA_site5010],8.57 ± 0.29
19,TCGTGCATAAATCATACACACACACCGATATATATA [CACACA_site8767],8.955 ± 0.064

row,Sequence,gcPBM binding intensity (ln)
1,AAAAAAAAAAAAAACGCACACATTTTTACAATTCTA [CACACA_site3271],8.58 ± 0.099
2,TTTGTATCCTTTTTGACATGCAACCATTCGGGTACA [TGCATGCA_site506],8.76 ± 0.37
3,TCACAATTTTTTAGTACACACATATAAATATATAAA [CACACA_site1537],8.52 ± 0.17
4,TCTATTAATTAATATACACACATTATGTATATATAT [CACACA_site2541],8.62 ± 0.3
5,TTTCATTAATCTAATAGTACAGAAAATTGAGAAAAA [XGTACX_site8395],8.72 ± 0.34
6,GTATACAAACATATAAATATAAATGTATTATTTGTT [CACACA_negctrl_site756],8.1 ± 0.45
7,AAGAGAAAAAGAATGAAAGAAAAAAAAAAAAAATAT [CACACA_negctrl_site1527],8.29 ± 0.17
8,CCCACAGACAAAAACACACACAAAGGTGTTCTTATA [CACACA_site4840],8.8 ± 0.74
9,TTTTTAAAGGTGATAAAACACACGATTTAGAAATGT [CACACA_site3160],8.55 ± 0.41
10,CTACATAAAAAAATATGTACATATATATATATATAT [XGTACX_site667],10 ± 0.46
11,TTATCGACCAATAAAGCATGCAAAAAAAAAAAAAAA [TGCATGCA_site788],8.56 ± 0.35
12,TAAATTTTTATTTGTAGTACTATATATATATATATA [XGTACX_site1026],10.1 ± 0.23
13,TTTTTTTGCCATATTACACACACACGGGTAAACCCC [CACACA_site6874],8.72 ± 0.5
14,TTTAATATAACTATTTGTACATAAAGAATATAAATA [XGTACX_site4594],8.39 ± 0.28
15,TAATGAAAATATATAACACACAAAAGTTATAAATAT [CACACA_site1189],8.62 ± 0.28
16,GTGTTGAATTATGTGCTTTTTTCTTTCTACTCAGTA [XGTACX_negctrl_site464],9.05 ± 0.45
17,TATATATGTATCAAGTGTACAGTTTTAAAAAAAAAA [XGTACX_site6011],8.64 ± 0.52
18,GAACATTTGAAATATGCACACATGTATAAACATACA [CACACA_site5463],8.56 ± 0.25
19,ATACATCGTATATAAGTGCATATTAAGGTCTTAAGA [GTGCAC_site9560],8.64 ± 0.38

row,Sequence,gcPBM binding intensity (ln)
1,ACACACAATACAAAAGTGCATATAATAATTAATCAT,8.73 ± 0.18
2,TGTTTTTAAAAAAAAAAAAAATCACACCGGCAGGTA [CACACA_negctrl_site1437],8.43 ± 0.58
3,TGCGTATATATATACACACACATATATATATTTTAA [CACACA_site1952],8.5 ± 0.3
4,AAAAAAAAAAGACACACACACAAAATAAACAAACAA [CACACA_site7308],8.76 ± 0.63
5,TATTTCATTAATGTCACTTTGAAAGAAATGAAAAAA [CACACA_negctrl_site1803],8.31 ± 0.52
6,CATATTATTCTTTTCACACACGCGTTAATAATAATC [CACACA_site3931],9.04 ± 0.5
7,TATTGACATATATTAGTGCAATAATGAAATCAAGTA,8.82 ± 0.11
8,AAAAAAAAAAAAAACACACACATACAGACAAAAATG [CACACA_site83],8.76 ± 0.59
9,CTAAATTATAGATCAGTGCAATTTAATATGAGTCCA,8.48 ± 0.28
10,TTGTAATTATTAAACACACACAAAATATATATAATA [CACACA_site2523],8.71 ± 0.53
11,AGGTGAGCTCAGACTACACACACAAAGAAAAAAATA [CACACA_site8439],8.79 ± 0.73
12,CCATAAAAATATAATACACACATATATATTAACATA [CACACA_site4102],8.57 ± 0.44
13,ATGTATATGATTAAATGTACGTAAACAAATTTGTAA [XGTACX_site8174],8.98 ± 0.49
14,ACCACATAAAACAAATGTACTTGAAATATATGCGTA [XGTACX_site5155],8.43 ± 0.4
15,CAAAGGGAAATTAACACACACATATTTATATTTATA [CACACA_site7202],8.47 ± 0.47
16,TATTAATAAATTTATAAAACAGGTATATATATATAT [CACACA_negctrl_site615],10.1 ± 0.18
17,AGAGTACAAGTAAATACACACATATAGATGAAAATA [CACACA_site6635],8.68 ± 0.28
18,ATATATATATATATATGTACACACATCAATCATATT [XGTACX_site4005],10.2 ± 0.54
19,TGCAGTCTGGAGAAGAGTACATAGTATCTGGTAGCT [XGTACX_site2021],8.66 ± 0.37
